B1: GBRAP_128_3232 (protein)
chain: MDPELRAKVDALIDTIINGDVAETRAATAELVALMGTVSLEEAEEIAERVIKALEKLTVEKLEALADTIRANRGTLDPEKANLALEVEIEALNLAEEKEE
B2: GBRAP_78_6594 (protein)
chain: EVEELLDKAIEHLDEAARLARKLPEDARNELLDEIVEAMSYILESIEEGFDLKNLEEAKKYAEKALKLVEALDHPEAPEIAKELKKAIELLEKAIKLVKK
B3: GBRAP_52_6257 (protein)
chain: MRERLRAIAERIFELVKAGRLEEARALARELAETFSEEELELFIEEAAELALESSKEEIEDLERMAELVAEELERAGRPEEIVSLFEARVYGAIYQTSQR
B4: GBRAP_14_3785 (protein)
chain: MEEILKKVKEEFEELEEILTAIAPEKAEEIKKLIEKAEKELIEKIKKTGDPVAAAKEVFAKLEKEVAALLADADPETRALALAAVRTTAANLIEEIEELL
B5: GBRAP_35_5580 (protein)
chain: NDEEIILETMRDFAEAAIEALKGDDLEEAISITEAFVRAAELAIEDLKNNLEALEEIEKLLEEVIKAVKKYASDNPKMQEILKRLEELAKRAKELAKKIK
B6: GBRAP_184_5189 (protein)
chain: MVEEYTIKVKDVAEAKAKIAAIAAAVKGKKATLNIIVEAEEITVEIARTIMEGLGAIKAAGNATAITVELVGKMSEEVIDTAVELGKAAGIRVVLAIDEE
B7: GBRAP_11_2869 (protein)
chain: KKEELKKIAELAEELAEVLEELLEEGVDNEELREKAEELLKELLELTKKYGDEASKKLAEIAYELWKEALEDPENAEEYVKELLATVRVLEGDYLLELEE
B8: GBRAP_128_3323 (protein)
chain: MDEARLARAEALARAMVEASVEEARALTREFVALLATLTPEERERAAEIAERAFEELSAEKLEAVADTLRAERPTLDPETANVVAGLEVHALNLAEEKEE
B9: GBRAP_160_4711 (protein)
chain: MEVKEKLKKYVEEEFEEAKELIKGESIEQRAIIVEGTIGEIIMELFEEEEASDELIDEVDKIGDELVETILANPDLTEEEIEELIEKAEEEIKKAIDKYV
B10: GBRAP_26_5445 (protein)
chain: IEELFDELLEELEELIDELLPPELAGPAKAEVATLLEELEEFVEENPNNFELIEKKFKEAIEELEEELRRLGVPEEKIKKIVEKARKLFEELFEKIKKEK
B11: GBRAP_11_2876 (protein)
chain: KKEKLEEGLKLAEELAKKLEELKKKGVDDEKLRKEIKKLVEELKKLVKEYGDEALKKDAEILAELVEEAEKDKENAEKYVNEALAQARVLAGQYLLELEE
B12: GBRAP_9_7114 (protein)
chain: KEVDKEVLKKAVEEAEKDLKEFAEDIENEKVKEIVEEAIKKMKALTEIEGITLEELEKKLDEIVEEATERAKKEVSPEIAAALEAELLTEKEEIIEAVEE
B13: GBRAP_11_2776 (protein)
chain: KKEKLEEAVKLARELAEAIKKLLEEGLDNEELRKKAEELLEKLEKLIKENADESLKKLAEIAKEEWEEAKKDPENAEEHAKHMLAAVEVLEGQLLLELEE
B14: GBRAP_52_5926 (protein)
chain: AAAALRARAQAILDAALAGDREGMEALIREIAKTLSLEEIEGVIAELARLVAELGPEHYDVFAEIMDLLEDAIEEEGRDVEAIQAAIARGAGILYDAEQA
B15: GBRAP_78_6674 (protein)
chain: EVEEELDKAIEHLGKAASILIKMNTEEAQEILGKVVDAASTLVEIEEGEADLKDAEEALKKLEEALKEVEKINTEEAKKAAEHLKAAIEHLKAAIKKMKE
B16: GBRAP_184_5134 (protein)
chain: ALRRAAVEATDAEELIAAARAVVDEAAAAGERLLLAVFAENMSVEEVIRVIRALGALKAAHPQVTVVVVVEDEVSEEELDRLVAAADEAGVRLVAALSDE
B17: GBRAP_150_3930 (protein)
chain: DLETLEDIVDTAIDLIEAIADGEESLVPHALKLAEHALEEAEELPEEVREKVKELLEKVIEKLKKIAAGAPEEERKKLVKEAKKLLEEALKLVEKLKKEK
B18: GBRAP_166_4949 (protein)
chain: SLEALKAELEAFIEELTAKMKTADAEERLDLLAEIAERLAEAKEAGLSDEDLLALATLALKLTKEAGGDVRQLLGVIEMFVDLTEEQRDRLAAAADEVEA
B19: GBRAP_184_5060 (protein)
chain: KVLEETIKVNNVEEAKKKIEELKEKVKDFKGDLVVSLEIKEFDKEIVKEVLEGLGEIKEKGYVKSVTLGIDAEMTEEEVDFAIELADEKGVKVVVPLSEE
B20: GBRAP_160_4056 (protein)
chain: SKEKEELIEEVKRAREEILEVIDEEGAEAAKIMAAGLFGSIIMEAAELPNASDELVDALAEIRDKLVEELEKNKDASKEELKEIVKKAAEEAIKAIEKYY
B21: GBRAP_150_3929 (protein)
chain: DLETLEDILDTAIDIIEAIAEGQEDLVPHALKLVEAAKDEAKELPEEVREKVEELLEEVIELLKAILAGAPEEERKKYIKEALEKLKEAKELVEKLKEEK
B22: GBRAP_9_7155 (protein)
chain: MEELLEKVKEVIEEAFEEIKKVVPEEVKPIVDELKEEAEKEFEKLAKDKNITKEEIVEKAKEILKKLEEELSKKVSPEIKKMVEAIVLTAELEIEELAEE
B23: GBRAP_166_4915 (protein)
chain: SMEELLEEAKRRIEELVKKIPKTDREKQVELAIEIAEVLEELEKAGASEEELDELWRHLAEALKEAGLDVERLMAVVAAAAGLDEEEMERVDEIVEEVLA
B24: GBRAP_55_6435 (protein)
chain: SEDEELDREASEDLVEVAAALIDDPEAMRRVIERLARDMAGKPIYVTKEALDLLETEEERRRFLLELVRAAKANPKITGIELVDVSEEDRALLAEAEAEA
B25: GBRAP_125_3009 (protein)
chain: HMEEIAEALGLIARRLGLSEEDVAELRELALRHGIKGTFYALFLAEGQEELADLVEKLTEEEVEEVVLEVAAELERNPDLTPEEVVALIREVLEKALAKR
B26: GBRAP_78_6644 (protein)
chain: EVEELVDKALEHIDKASKLALKLPEEERNELLDELVDASSYLLESEEEGFDLELLKKALEELEAALELVKKIDHPYAPEIKKELEKAIKLLKEAIKLLEK
B27: GBRAP_139_3733 (protein)
chain: SADDAAVAEVVALTKRSVETGGALVAEIADALNALDEDTADRAAEAMAEVLETQPFDVAEALFDALIDTLLTEHKNEDLATIVEAAANRALARIAVREEA
B28: GBRAP_52_6083 (protein)
chain: MEKEIEETANKIYEAIKAGDKEKALELIKEAIKKFSPEEIKEMLKLTAEKVASLGDEKHELFVDILTEAEDLMIEAGISEEEALLIVGDAEAALAKAVAA
B29: GBRAP_14_3858 (protein)
chain: VEEIVKAIKEAAEETKEFARELLPEHAEEVEAKIKELAEEAIKKVKEEKLNKEEVAELADEMAERLGEWIREHGWANDEEIAALRAELINNVLLKLEEIE

Whole data set: some 4,500 sequences, median “median log2 fold change of GCK-ALFA target abundance (FLAG IP / Myc IP barcode read proportion)” near 0.078, cut for the lowest 2% near -0.6. The list shows a part of the results.

Chain of GABARAP, O95166 (O95166 whole entry, the tested form may be a part): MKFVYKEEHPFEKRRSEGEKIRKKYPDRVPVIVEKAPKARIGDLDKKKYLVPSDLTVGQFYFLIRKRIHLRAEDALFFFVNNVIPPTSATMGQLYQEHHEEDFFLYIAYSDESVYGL

In this test the target is GABARAP, O95166. The experiment in a line: median log2 fold change of GCK-ALFA target abundance (FLAG IP / Myc IP barcode read proportion) (log2 ratio); each designed protein is fused to an ALFA-tag nanobody in HEK293 cells to bring the named protein to FLAG-tagged glucokinase (GCK); Myc marks an untargeted standard; higher = target protein stabilised (more abundant). The note with it: target protein: 3xFLAG-MCP-GCK-ALFA reporter; HEK293 landing pad (RPLP). The essentials:
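HEK293 landing-pad cells received a recombined binder library fused to the ALFA nanobody and were induced with 2 μg mL^−1 doxycycline, then transfected with a plasmid encoding a FLAG-tagged target and a Myc-tagged standard. Lysates were collected after 48 h for anti-FLAG and anti-Myc immunoprecipitation, and the circular RNA barcodes were reverse transcribed, amplified and sequenced. Target abundance for each binder is the median log2 ratio of FLAG to Myc barcode read proportions. Barcodes had to reach a proportion of at least 10^−7 in both replicates, each binder needed at least 3 barcodes per replicate, a pseudocount of 10^−6 was applied, and the two replicates were pooled.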
For the molecule B1, the “median log2 fold change” value is 0.254.
With B2, the “median log2 fold change” value is -0.0374.
In the case of B3, the “median log2 fold change” value stood at 0.101.
On to B4, for which the “median log2 fold change” value was 0.154.
Regarding B5, the “median log2 fold change” value amounted to 0.103.
B6: the “median log2 fold change” value was 0.256.
For the molecule B7, the “median log2 fold change” value came out at 0.113.
Regarding B8, the “median log2 fold change” value stood at 0.267.
To B9 belongs -0.152; to B10, 0.0323.
With B11, the “median log2 fold change” value came out at 0.439.
Consider B12, for which the “median log2 fold change” value turned out to be 0.359.
Next, B13: 0.228.
Take B14: the “median log2 fold change” value was determined as 0.0988.
Turning to B15, the “median log2 fold change” value turned out to be 0.166.
To B16 belongs 0.0256.
B17: the “median log2 fold change” value came to 0.176.
Regarding B18, the “median log2 fold change” value was 0.0529.
To B19 belongs 0.00873; to B20, 0.187.
Turning to B21, the “median log2 fold change” value is 0.292.
To B22 belongs 0.304; to B23, 0.0994; to B24, 0.0201.
To B25 belongs -0.146; to B26, -0.126.
In the case of B27, the “median log2 fold change” value stood at 0.133.
Next, B28: -0.22; B29: 0.359.

The values above are taken from the supplement of paper PMC12632987.
